Data: publication PMC8989888, “Development of optimized drug-like small molecule inhibitors of the SARS-CoV-2 3CL protease for treatment of COVID-19” (Nature Communications, 2022)

Biological target: TMPRSS2 (Homo sapiens, UniProt O15393)
Sequence (O15393 106-492): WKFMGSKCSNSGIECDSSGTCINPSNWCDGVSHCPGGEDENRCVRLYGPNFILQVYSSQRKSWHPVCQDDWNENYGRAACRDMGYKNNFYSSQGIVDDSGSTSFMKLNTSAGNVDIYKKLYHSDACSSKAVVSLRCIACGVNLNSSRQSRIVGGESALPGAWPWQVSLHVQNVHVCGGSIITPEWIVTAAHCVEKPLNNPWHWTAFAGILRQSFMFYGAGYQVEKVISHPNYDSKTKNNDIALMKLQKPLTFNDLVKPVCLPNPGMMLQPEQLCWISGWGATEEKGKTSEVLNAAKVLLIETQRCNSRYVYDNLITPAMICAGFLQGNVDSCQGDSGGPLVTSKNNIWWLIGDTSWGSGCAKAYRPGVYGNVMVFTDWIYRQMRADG

Compound	inhibition of TMPRSS2 (in words)
CC(C)C[C@H](NC(=O)OCc1ccccc1Cl)C(=O)N[C@@H](C[C@@H]1CCNC1=O)C(O)S(=O)(=O)O (some centres unmarked) [EB54]	no inhibition of TMPRSS2
CC(C)C[C@H](NC(=O)OCc1cccc(C(F)(F)F)c1)C(=O)N[C@@H](C[C@@H]1CCNC1=O)C(O)S(=O)(=O)O (some centres unmarked) [NK01-63]	no inhibition of TMPRSS2
